Measured values as given in the supplement of paper PMC4967469.

How the values were obtained:
Test in all cases: Viability of human cancer cell lines after 72 h of drug (GDSC screen)
Bexarotene = compound: C=C(c1ccc(C(=O)O)cc1)c1cc2c(cc1C)C(C)(C)CCC2(C)C [Bexarotene]; conditions: top dose 8 µM
Protocol: (§1)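 Human cancer cell lines in 384-well plates, medium with 10% serum, drug for 72 h over a 256-fold dose range (nine 2-fold or five 4-fold steps up to the top dose). Adherent lines were fixed and stained with the nucleic acid dye Syto60, suspension lines read with resazurin; signal relative to control wells, capped at 0 and 100%. One two-parameter sigmoid per drug and line, fitted in a mixed model over all curves with the slope shared within a line.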

Etoposide = compound: COc1cc([C@@H]2c3cc4c(cc3[C@@H](O[C@@H]3O[C@@H]5CO[C@@H](C)O[C@H]5[C@H](O)[C@H]3O)[C@H]3COC(=O)[C@H]23)OCO4)cc(OC)c1O [Etoposide]; conditions: top dose 16 µM
Protocol: as §1

NPK76-II-72-1 = compound: COc1cc(C(=O)NC2CCN(C)CC2)ccc1Nc1ncc2c(n1)N(C1CCCC1)C(C)CC(=O)N2C [NPK76-II-72-1]; conditions: top dose 10.24 µM; top dose inferred
Protocol: as §1

AZD7762 = compound: NC(=O)Nc1cc(-c2cccc(F)c2)sc1C(=O)N[C@H]1CCCNC1 [AZD7762]; conditions: top dose 2 µM
Protocol: as §1

BMS-345541 = compound: Cc1ccc2nc(NCCN)c3ncc(C)n3c2c1 [BMS-345541]; conditions: top dose 16 µM
Protocol: as §1

GSK-650394 = compound: O=C(O)c1ccc(-c2c[nH]c3ncc(-c4ccccc4)cc23)cc1C1CCCC1 [GSK-650394]; conditions: top dose 16 µM; top dose inferred
Protocol: as §1

XAV 939 = compound: Oc1nc(-c2ccc(C(F)(F)F)cc2)nc2c1CSCC2 [XAV 939]; conditions: top dose 5 µM; top dose inferred
Protocol: as §1

YK 4-279 = compound: COc1ccc(C(=O)CC2(O)C(=O)Nc3c(Cl)ccc(Cl)c32)cc1 [YK 4-279]; conditions: top dose 10 µM
Protocol: as §1

Cell Line	AUC (Bexarotene)	IC50 (Bexarotene) [µM]	AUC (Etoposide)	IC50 (Etoposide) [µM]	AUC (NPK76-II-72-1)	IC50 (NPK76-II-72-1) [µM]	AUC (AZD7762)	IC50 (AZD7762) [µM]	AUC (BMS-345541)	IC50 (BMS-345541) [µM]	AUC (GSK-650394)	IC50 (GSK-650394) [µM]	AUC (XAV 939)	IC50 (XAV 939) [µM]	AUC (YK 4-279)	IC50 (YK 4-279) [µM]
PC-14 (lung adenocarcinoma, adherent)	0.982	> 8	0.818	7.8	0.882	8.84	0.727	0.507	0.825	8.22	0.906	> 16	0.961	> 5	0.654	1.58
PCI-4B (head and neck, adherent)	0.943	> 8	0.519	1.13	0.771	3.72	0.671	0.363	0.818	8.42	0.828	9.17	0.922	> 5	0.651	1.6
PCI-6A (head and neck, adherent)	0.939	> 8	0.468	0.821	0.886	> 10.2	0.247	0.0238	0.777	6.3	0.584	1.69	0.98	> 5	0.722	2.63
PCI-15A (head and neck, adherent)	0.937	> 8	0.697	3.6	0.986	> 10.2	0.917	> 2	0.772	6.22	0.983	> 16	0.986	> 5	0.687	2.09
PCI-30 (head and neck, adherent)	0.981	> 8	0.947	> 16	0.98	> 10.2	0.706	0.549	0.985	> 16	0.985	> 16	0.982	> 5	0.75	3.92
PE/CA-PJ15 (head and neck, adherent)	0.986	> 8	0.787	7.6	0.968	> 10.2	0.961	> 2	0.934	> 16	0.985	> 16	0.942	> 5	0.697	2.35
PF-382 (T-cell lymphoblastic leukaemia, suspension)	0.975	> 8	0.49	0.944	0.473	0.547	0.631	0.273	0.578	1.58	0.83	8.39	0.99	> 5	0.99	> 10
PL-21 (acute myeloid leukaemia, suspension)	0.847	7.46	0.772	7.19	0.639	1.66	0.459	0.0949	0.594	1.89	0.879	> 16	0.966	> 5	0.808	6.23
PSN1 (pancreas, adherent)	0.823	3.75	0.959	> 16	0.854	6.18	0.777	0.675	0.759	4.8	0.57	1.5	0.991	> 5	0.565	0.911
QIMR-WIL (acute myeloid leukaemia, suspension)	0.909	> 8	0.231	0.171	0.786	4.28	0.503	0.128	0.729	4.38	0.756	5.33	0.957	> 5	0.66	1.71
RC-K8 (B-cell lymphoma, suspension)	0.984	> 8	0.86	10.7	0.942	> 10.2	0.919	> 2	0.913	> 16	0.987	> 16	0.967	> 5	0.973	> 10
REH (B-cell leukaemia, suspension)	0.977	> 8	0.251	0.199	0.62	1.35	0.692	0.421	0.837	10.2	0.852	11.6	0.962	> 5	0.716	2.49
RERF-LC-KJ (lung adenocarcinoma, adherent)	0.96	> 8	0.871	15.8	0.965	> 10.2	0.758	0.711	0.886	> 16	0.871	15.9	0.928	> 5	0.81	5.47
RERF-LC-MS (lung adenocarcinoma, adherent)	0.922	> 8	0.647	2.58	0.968	> 10.2	0.754	0.69	0.984	> 16	0.974	> 16	0.944	> 5	0.7	2.32
RF-48 (stomach, adherent)	0.935	> 8	0.446	0.699	0.625	1.48	0.771	0.859	0.863	> 16	0.927	> 16	0.979	> 5	0.924	> 10
RH-1 (rhabdomyosarcoma, adherent)	0.982	> 8	0.203	0.162	0.57	0.959	0.616	0.246	0.829	7.81	0.657	2.52	0.99	> 5	0.6	1.12

Cell Line	AUC (Bexarotene)	IC50 (Bexarotene) [µM]	AUC (Etoposide)	IC50 (Etoposide) [µM]	AUC (NPK76-II-72-1)	IC50 (NPK76-II-72-1) [µM]	AUC (AZD7762)	IC50 (AZD7762) [µM]	AUC (BMS-345541)	IC50 (BMS-345541) [µM]	AUC (GSK-650394)	IC50 (GSK-650394) [µM]	AUC (XAV 939)	IC50 (XAV 939) [µM]	AUC (YK 4-279)	IC50 (YK 4-279) [µM]
RH-41 (rhabdomyosarcoma, adherent)	0.954	> 8	0.857	9.74	0.938	> 10.2	0.678	0.357	0.968	> 16	0.958	> 16	0.991	> 5	0.569	0.935
RKN (ovary, adherent)	0.952	> 8	0.861	14.8	0.82	6.31	0.607	0.25	0.894	> 16	0.92	> 16	0.97	> 5	0.643	1.59
RKO (large intestine, adherent)	0.871	6.6	0.394	0.525	0.889	10.2	0.744	0.588	0.802	7.22	0.537	1.25	0.987	> 5	0.446	0.451
RMG-I (ovary, adherent)	0.973	> 8	0.908	> 16	0.917	> 10.2	0.821	1.42	0.903	> 16	0.911	> 16	0.942	> 5	0.722	2.99
RO82-W-1 (thyroid, adherent)	0.979	> 8	0.925	> 16	0.976	> 10.2	0.836	1.88	0.983	> 16	0.91	> 16	0.961	> 5	0.705	2.81
ROS-50 (B-cell leukaemia, suspension)	0.978	> 8	0.933	> 16	0.839	10	0.951	> 2	0.85	> 16	0.972	> 16	0.977	> 5	0.983	> 10
RPMI-2650 (head and neck, adherent)	0.945	> 8	0.433	0.646	0.932	> 10.2	0.882	> 2	0.896	> 16	0.809	9.23	0.976	> 5	0.892	> 10
RPMI-6666 (Hodgkin lymphoma, suspension)	0.823	6.04	0.526	1.2	0.675	2.19	0.84	1.81	0.725	5.03	0.863	> 16	0.976	> 5	0.765	4.37
RPMI-8402 (T-cell lymphoblastic leukaemia, suspension)	0.988	> 8	0.264	0.242	0.315	0.214	0.542	0.16	0.522	1.14	0.865	10.5	0.973	> 5	0.685	1.87
RPMI-8866 (chronic myeloid leukaemia, suspension)	0.977	> 8	0.745	4.72	0.782	3.96	0.437	0.0853	0.89	> 16	0.987	> 16	0.84	3.08	0.609	1.21
RT4 (bladder, adherent)	0.987	> 8	0.95	> 16	0.724	2.88	0.882	> 2	0.872	> 16	0.91	> 16	0.984	> 5	0.825	6.41
Raji (Burkitt lymphoma, suspension)	0.966	> 8	0.828	9.02	0.882	9.6	0.784	0.792	0.87	13.3	0.929	> 16	0.977	> 5	0.71	2.33
Ramos-2G6-4C10 (Burkitt lymphoma, suspension)	0.983	> 8	0.842	8.94	0.664	1.69	0.461	0.0997	0.876	12	0.887	13.4	0.99	> 5	0.68	1.83
SBC-1 (small cell lung carcinoma, suspension)	0.937	> 8	0.935	> 16	0.886	> 10.2	0.87	1.74	0.916	> 16	0.989	> 16	0.966	> 5	0.682	1.97
SBC-3 (small cell lung carcinoma, adherent)	0.948	> 8	0.292	0.276	0.749	3.05	0.825	1.06	0.811	7.57	0.695	3.32	0.988	> 5	0.594	1.1
SCC-4 (head and neck, adherent)	0.905	> 8	0.744	5.82	0.948	> 10.2	0.801	1.2	0.937	> 16	0.853	> 16	0.962	> 5	0.706	2.69

The IC50 comes from the fitted curve, where viability falls to half of the control; where the fit passes the top or lowest dose, that dose stands as a limit. AUC, from the same fit, is the share of area under the viability curve across the 256-fold dose range; it is 1 without any effect and falls as sensitivity rises. For some assays here: An inferred top dose comes from the curve model; the source does not state it.
